Test results taken from ChEMBL document CHEMBL5606460, “ASAP - DENV-2 NS2B-NS3 protease fluorescence single point” (2024).
Hit rate of the full screen: of about 2,000 compounds, about 110 (5.5%) showed an effect of 50% or more. The list shows a part of the results.

Biological target: Genome polyprotein (dengue virus type 2) (UniProt P29990)
[1] = Thailand/16681/1984, Concentration 25.0 uM, Number of replicates 1.0

Question: Which inhibition [1] does the source give for `O=Cc1ccc(N2CCC(C(=O)N3CCC(c4nc5ccccc5[nH]4)CC3)CC2)cc1` here?
Answer: 13.9%

Question: For `CNC(=O)c1cc(Cl)ccc1NS(=O)(=O)c1cnn(Cc2ccccc2)c1`, which inhibition (Thailand/16681/1984, Concentration 49.5 uM, Number of replicates 2.0, Standard deviation 0.9758772341405187 %) is on record?
Answer: -6.5%

Question: For `COc1ccc(S(=O)(=O)Nc2ccc(C(=O)Nc3nc4ccccc4s3)cc2)cc1`, which inhibition (Thailand/16681/1984, Concentration 49.5 uM, Number of replicates 2.0, Standard deviation 3.7544426140495926 %) is on record?
Answer: 29.1%

Question: And the inhibition (Thailand/16681/1984, Concentration 99.01 uM, Number of replicates 2.0, Standard deviation 4.187277935614527 %)?
Answer: 33.9%

Question: And the inhibition (Thailand/16681/1984, Concentration 198.0 uM, Number of replicates 2.0, Standard deviation 2.8387015148887818 %)?
Answer: 20.5%

Question: For `CCOc1ccccc1CCNC(=O)C1CCN(c2ccc(C=O)cc2)CC1`, which inhibition [1] is on record?
Answer: 8.02%

Question: Which results are given for `O=C(NCC1CC1)c1cc(Cl)ccc1NS(=O)(=O)c1ccc(Oc2ccccc2Cl)cc1`?
Answer: inhibition (Thailand/16681/1984, Concentration 49.5 uM, Number of replicates 2.0, Standard deviation 0.6779748794958176 %): 77.8%; inhibition (Thailand/16681/1984, Concentration 99.01 uM, Number of replicates 2.0, Standard deviation 0.21598068225710626 %): 88.2%; inhibition (Thailand/16681/1984, Concentration 198.0 uM, Number of replicates 2.0, Standard deviation 0.009057863507173258 %): 87%

Question: For `O=Cc1ccc(N2CCC(C(=O)Nc3c(Cl)c(F)nc(F)c3Cl)CC2)cc1`, which inhibition [1] is on record?
Answer: 10.4%

Question: Which inhibition (Thailand/16681/1984, Concentration 49.5 uM, Number of replicates 2.0, Standard deviation 0.1523274770628613 %) does the source give for `CNC(=O)c1cc(Br)cnc1NS(=O)(=O)c1ccc(Oc2ccccc2Cl)cc1` here?
Answer: 20.5%

Question: And the inhibition (Thailand/16681/1984, Concentration 99.01 uM, Number of replicates 2.0, Standard deviation 0.08785965758059779 %)?
Answer: 73.9%

Question: What about the inhibition (Thailand/16681/1984, Concentration 198.0 uM, Number of replicates 2.0, Standard deviation 0.12988512316778045 %) of the same compound?
Answer: 87.2%

Question: What does the source list for `Nc1ncnc2c(Br)cccc12`?
Answer: inhibition (Thailand/16681/1984, Concentration 49.95 uM, Number of replicates 2.0, Standard deviation 2.229976942069456 %): -2.53%; inhibition (Thailand/16681/1984, Concentration 99.9 uM, Number of replicates 2.0, Standard deviation 1.6212787531772979 %): -0.078%

Question: What does the source list for `CN(CCS(N)(=O)=O)C(=O)c1cc(Cl)ccc1NS(=O)(=O)c1ccc(Oc2ccccc2Cl)cc1`?
Answer: inhibition (Thailand/16681/1984, Concentration 49.5 uM, Number of replicates 2.0, Standard deviation 3.051075775612508 %): 8.12%; inhibition (Thailand/16681/1984, Concentration 99.01 uM, Number of replicates 2.0, Standard deviation 2.2523140974306535 %): 55.8%; inhibition (Thailand/16681/1984, Concentration 198.0 uM, Number of replicates 2.0, Standard deviation 0.05978513602530914 %): 97.7%

Question: Which inhibition (Thailand/16681/1984, Concentration 49.5 uM, Number of replicates 2.0, Standard deviation 3.1266236643934975 %) does the source give for `CC(C)Nc1nc2ccc(C(=O)Nc3c[nH]c(C(N)=O)c3)cc2[nH]1` here?
Answer: -0.293%

Question: What about the inhibition (Thailand/16681/1984, Concentration 99.01 uM, Number of replicates 2.0, Standard deviation 2.979513503560951 %) of the same compound?
Answer: 1.26%

Question: What about the inhibition (Thailand/16681/1984, Concentration 198.0 uM, Number of replicates 2.0, Standard deviation 2.74818795455115 %) of the same compound?
Answer: 6.16%

Question: What does the source list for `CCc1ccc(-c2ccccc2C(=O)Nc2cnn(C)c2)c(F)c1`?
Answer: inhibition (Thailand/16681/1984, Concentration 49.5 uM, Number of replicates 2.0, Standard deviation 0.8455770066617545 %): -0.985%; inhibition (Thailand/16681/1984, Concentration 99.01 uM, Number of replicates 2.0, Standard deviation 1.2261793384720772 %): -0.538%; inhibition (Thailand/16681/1984, Concentration 198.0 uM, Number of replicates 2.0, Standard deviation 2.01798052784263 %): 0.736%

Question: For `NC(=O)C1(N2CCCCC2)CCN(C(=O)C2CCN(c3ccc(C=O)cc3)CC2)CC1`, which inhibition [1] is on record?
Answer: 14.5%

Question: `O=Cc1ccc(N2CCC(C(=O)NCCN3C(=O)c4ccccc4C3=O)CC2)cc1` was tested. Which inhibition [1] did it give?
Answer: 13.3%

Question: Which inhibition [1] does the source give for `O=Cc1ccc(N2CCC(C(=O)NCCc3ccccc3C(F)(F)F)CC2)cc1` here?
Answer: 14.4%

Question: `O=Cc1ccc(N2CCC(C(=O)N(Cc3ccccn3)Cc3ccccn3)CC2)cc1` was tested. Which inhibition [1] did it give?
Answer: 12.6%

Question: How did the inhibition [1] turn out when `O=Cc1ccc(N2CCC(C(=O)Nc3c(F)cccc3Br)CC2)cc1` was run?
Answer: 12.8%

Question: How did the inhibition [1] turn out when `O=Cc1ccc(N2CCC(C(=O)NCCSCc3ccccc3)CC2)cc1` was run?
Answer: 14.2%

Question: For `Cc1cc(CO)c2cccc(CC(=O)Nc3cc(C)[nH]n3)c2n1`, which inhibition (Thailand/16681/1984, Concentration 49.95 uM, Number of replicates 2.0, Standard deviation 0.6660500187655393 %) is on record?
Answer: 4.74%

Question: What about the inhibition (Thailand/16681/1984, Concentration 99.9 uM, Number of replicates 2.0, Standard deviation 2.9944546877986085 %) of the same compound?
Answer: 12.6%

Question: With `Cc1cnccc1NC(=O)c1cnn(C2CC2)c1` as the compound, how does the inhibition (Thailand/16681/1984, Concentration 49.5 uM, Number of replicates 2.0, Standard deviation 1.5729085853089821 %) read?
Answer: -4.23%

Question: What about the inhibition (Thailand/16681/1984, Concentration 99.01 uM, Number of replicates 2.0, Standard deviation 0.8719029819128717 %) of the same compound?
Answer: -3.01%

Question: What about the inhibition (Thailand/16681/1984, Concentration 198.0 uM, Number of replicates 2.0, Standard deviation 1.2354679349014233 %) of the same compound?
Answer: -1.49%

Question: For `O=C(NCC1CCNCC1)c1cc2ccc(-c3ccoc3)cc2[nH]1`, which inhibition (Thailand/16681/1984, Concentration 49.5 uM, Number of replicates 2.0, Standard deviation 1.3389018645311606 %) is on record?
Answer: -6.77%

Question: And the inhibition (Thailand/16681/1984, Concentration 99.01 uM, Number of replicates 2.0, Standard deviation 0.725737036927515 %)?
Answer: -9.82%

Question: For `CO[C@H]1C[C@@H](CNCc2nnc3ccccn23)C1`, which inhibition (Thailand/16681/1984, Concentration 49.5 uM, Number of replicates 2.0, Standard deviation 3.3533846096108033 %) is on record?
Answer: 2.46%

Question: What about the inhibition (Thailand/16681/1984, Concentration 99.01 uM, Number of replicates 2.0, Standard deviation 3.7279623391860772 %) of the same compound?
Answer: 0.715%

Question: And the inhibition (Thailand/16681/1984, Concentration 198.0 uM, Number of replicates 2.0, Standard deviation 3.3163119519010373 %)?
Answer: 2.11%

Question: `CCCCCC(=O)N[C@@H](Cc1ccc(C#N)cc1)C(=O)Nc1cccc(C(N)=O)c1` was tested. Which inhibition (Thailand/16681/1984, Concentration 49.5 uM, Number of replicates 2.0, Standard deviation 2.282349037497578 %) did it give?
Answer: -0.915%

Question: What about the inhibition (Thailand/16681/1984, Concentration 99.01 uM, Number of replicates 2.0, Standard deviation 2.0289858707789463 %) of the same compound?
Answer: -0.916%

Question: What about the inhibition (Thailand/16681/1984, Concentration 198.0 uM, Number of replicates 2.0, Standard deviation 1.244964958033368 %) of the same compound?
Answer: 0.809%

Question: With `O=Cc1ccc(N2CCC(C(=O)Nc3ccc4scnc4c3)CC2)cc1` as the compound, how does the inhibition [1] read?
Answer: 13%
